According to the supplement of paper PMC6089552:
About 300 (9.4%) of roughly 3,200 compounds showed activity. The entries are a selection whose mix differs from that of the whole data set.

Test system: A673/TR/shEF
Assay: cell viability (LOESS-normalised, relative to median of negative controls) (log2 ratio); higher = more viable cells (less compound effect), active = hit call of the paper (over 3 MAD below the median)
Settings: treatment time: 72 h
How it was run: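 A673/TR/shEF Ewing sarcoma cells (1,500 per well, 384-well plates) were grown with or without doxycycline to induce EWS-FLI1 shRNA knockdown, starting 24 h before compounds. Library compounds at two or more concentrations, with DMSO controls, were added for three days. Cell viability was read by CellTiter-Glo luminescence on an Envision reader, then LOESS-corrected per plate, divided by the median of negative controls and log2-transformed. Hits were wells at least three median absolute deviations from the median of all screened wells.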

[1] = 0.25 µM, library screen: screen1, EWS-FLI1 expression: high (no doxycycline)
[2] = 0.25 µM, library screen: screen1, EWS-FLI1 expression: low (doxycycline-induced shRNA knockdown)
[3] = 2.5 µM, library screen: screen1, EWS-FLI1 expression: high (no doxycycline)
[4] = 2.5 µM, library screen: screen1, EWS-FLI1 expression: low (doxycycline-induced shRNA knockdown)
[5] = 0.103 µM, library screen: screen3, EWS-FLI1 expression: high (no doxycycline)
[6] = 0.103 µM, library screen: screen3, EWS-FLI1 expression: low (doxycycline-induced shRNA knockdown)
[7] = 0.308 µM, library screen: screen3, EWS-FLI1 expression: high (no doxycycline)
[8] = 0.308 µM, library screen: screen3, EWS-FLI1 expression: low (doxycycline-induced shRNA knockdown)
[9] = 0.926 µM, library screen: screen3, EWS-FLI1 expression: high (no doxycycline)
[10] = 0.926 µM, library screen: screen3, EWS-FLI1 expression: low (doxycycline-induced shRNA knockdown)
[11] = 2.8 µM, library screen: screen3, EWS-FLI1 expression: high (no doxycycline)
[12] = 2.8 µM, library screen: screen3, EWS-FLI1 expression: low (doxycycline-induced shRNA knockdown)
[13] = 8.3 µM, library screen: screen3, EWS-FLI1 expression: high (no doxycycline)
[14] = 8.3 µM, library screen: screen3, EWS-FLI1 expression: low (doxycycline-induced shRNA knockdown)
[15] = 25 µM, library screen: screen3, EWS-FLI1 expression: high (no doxycycline)
[16] = 25 µM, library screen: screen3, EWS-FLI1 expression: low (doxycycline-induced shRNA knockdown)
[17] = 0.25 µM, library screen: screen2, EWS-FLI1 expression: high (no doxycycline)
[18] = 0.25 µM, library screen: screen2, EWS-FLI1 expression: low (doxycycline-induced shRNA knockdown)
[19] = 2.5 µM, library screen: screen2, EWS-FLI1 expression: high (no doxycycline)
[20] = 2.5 µM, library screen: screen2, EWS-FLI1 expression: low (doxycycline-induced shRNA knockdown)

Measured: cell viability (log2)

O=c1ccc2cc(O)c(O)cc2o1
inactive: [1] -0.014 | [2] 0.0916 | [3] 0.128 | [4] 0.0922

C[C@H](CCC(=O)O)[C@H]1CC[C@H]2[C@@H]3[C@H](O)C[C@@H]4C[C@H](O)CC[C@]4(C)[C@H]3C[C@H](O)[C@]12C
inactive: [1] 0.0945 | [2] 0.0736 | [3] 0.133 | [4] 0.116

O=C(OCC(O)CO)c1ccccc1Nc1ccnc2cc(Cl)ccc12 (stereo not drawn)
inactive: [1] 0.0611 | [2] 0.0198 | [3] 0.156 | [4] 0.0175

Cc1cc(O)c2c(c1)C(=O)c1cccc(O)c1C2=O
inactive: [1] 0.0882 | [2] 0.1 | [3] 0.0643 | [4] 0.0809

NC(=O)c1cn(Cc2c(F)cccc2F)nn1
inactive: [5] 0.0918 | [6] 0.0809 | [7] 0.113 | [8] 0.087 | [9] 0.0716 | [10] 0.0801 | [11] 0.0643 | [12] 0.0783 | [13] 0.0937 | [14] 0.0955 | [15] 0.164 | [16] 0.0617

COc1cc2c(N3CCN(C(=O)Nc4ccc(OC(C)C)cc4)CC3)ncnc2cc1OCCCN1CCCCC1
inactive: [5] -0.0129 | [6] -0.0538 | [7] -0.0428 | [8] -0.0392 | [9] -0.0343 | [10] -0.0604 | [11] 0.0597 | [12] 0.0175 | [13] 0.0441 | [14] 0.0441 | [15] -0.0915 | [16] 0.0601

CC(C(=O)O)c1ccc(-c2ccccc2)c(F)c1 (stereo not drawn)
inactive: [5] 0.121 | [6] 0.068 | [1] 0.12 | [2] -0.0943 | [7] 0.102 | [8] 0.12 | [9] 0.113 | [10] 0.145 | [3] 0.214 | [4] 0.0375 | [11] 0.00771 | [12] 0.108 | [13] 0.0867 | [14] 0.0898 | [15] 0.0301 | [16] 0.127

COc1ccccc1N(C(N)=O)c1nc(-c2cccnc2)nc2ccccc12
inactive: [17] 0.155 | [18] 0.0439 | [19] 0.275 | [20] 0.0633

COc1ccccc1N1CCN(CCCCN2C(=O)c3ccccc3C2=O)CC1
inactive: [17] 0.04 | [18] 0.096 | [19] 0.126 | [20] 0.0323

C=C1C2=CC(=O)O[C@@H](c3ccoc3)[C@]2(C)CCC1[C@@]1(C)C=CC(=O)C(C)(C)[C@@H]1CC(=O)OC (stereo partly drawn)
inactive: [1] 0.0212 | [2] -0.0342 | [3] -0.0229 | [4] 0.0744
